# Residue numbers refer to the chain shown, from its start. No constants are given. Whether binding was seen depends on the method and setting. Binding seen in cells or lysates may run through a third protein. Some entries that bind do so weakly or less than the wild type. For some assays here: Where a sequence is shown, tags or fusion partners need not be part of it.
# Chains of the proteins cited; added tags and fusions are not shown.
# UniProt Q06609: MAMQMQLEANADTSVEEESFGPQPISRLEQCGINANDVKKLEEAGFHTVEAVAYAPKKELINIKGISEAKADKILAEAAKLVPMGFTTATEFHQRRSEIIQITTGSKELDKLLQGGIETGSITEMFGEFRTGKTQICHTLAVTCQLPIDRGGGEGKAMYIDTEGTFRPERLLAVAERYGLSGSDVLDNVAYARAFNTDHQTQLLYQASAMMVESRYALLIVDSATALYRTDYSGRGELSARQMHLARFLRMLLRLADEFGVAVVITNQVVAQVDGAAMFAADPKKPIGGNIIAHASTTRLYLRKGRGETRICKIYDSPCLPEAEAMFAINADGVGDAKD
# UniProt Q9BXW9: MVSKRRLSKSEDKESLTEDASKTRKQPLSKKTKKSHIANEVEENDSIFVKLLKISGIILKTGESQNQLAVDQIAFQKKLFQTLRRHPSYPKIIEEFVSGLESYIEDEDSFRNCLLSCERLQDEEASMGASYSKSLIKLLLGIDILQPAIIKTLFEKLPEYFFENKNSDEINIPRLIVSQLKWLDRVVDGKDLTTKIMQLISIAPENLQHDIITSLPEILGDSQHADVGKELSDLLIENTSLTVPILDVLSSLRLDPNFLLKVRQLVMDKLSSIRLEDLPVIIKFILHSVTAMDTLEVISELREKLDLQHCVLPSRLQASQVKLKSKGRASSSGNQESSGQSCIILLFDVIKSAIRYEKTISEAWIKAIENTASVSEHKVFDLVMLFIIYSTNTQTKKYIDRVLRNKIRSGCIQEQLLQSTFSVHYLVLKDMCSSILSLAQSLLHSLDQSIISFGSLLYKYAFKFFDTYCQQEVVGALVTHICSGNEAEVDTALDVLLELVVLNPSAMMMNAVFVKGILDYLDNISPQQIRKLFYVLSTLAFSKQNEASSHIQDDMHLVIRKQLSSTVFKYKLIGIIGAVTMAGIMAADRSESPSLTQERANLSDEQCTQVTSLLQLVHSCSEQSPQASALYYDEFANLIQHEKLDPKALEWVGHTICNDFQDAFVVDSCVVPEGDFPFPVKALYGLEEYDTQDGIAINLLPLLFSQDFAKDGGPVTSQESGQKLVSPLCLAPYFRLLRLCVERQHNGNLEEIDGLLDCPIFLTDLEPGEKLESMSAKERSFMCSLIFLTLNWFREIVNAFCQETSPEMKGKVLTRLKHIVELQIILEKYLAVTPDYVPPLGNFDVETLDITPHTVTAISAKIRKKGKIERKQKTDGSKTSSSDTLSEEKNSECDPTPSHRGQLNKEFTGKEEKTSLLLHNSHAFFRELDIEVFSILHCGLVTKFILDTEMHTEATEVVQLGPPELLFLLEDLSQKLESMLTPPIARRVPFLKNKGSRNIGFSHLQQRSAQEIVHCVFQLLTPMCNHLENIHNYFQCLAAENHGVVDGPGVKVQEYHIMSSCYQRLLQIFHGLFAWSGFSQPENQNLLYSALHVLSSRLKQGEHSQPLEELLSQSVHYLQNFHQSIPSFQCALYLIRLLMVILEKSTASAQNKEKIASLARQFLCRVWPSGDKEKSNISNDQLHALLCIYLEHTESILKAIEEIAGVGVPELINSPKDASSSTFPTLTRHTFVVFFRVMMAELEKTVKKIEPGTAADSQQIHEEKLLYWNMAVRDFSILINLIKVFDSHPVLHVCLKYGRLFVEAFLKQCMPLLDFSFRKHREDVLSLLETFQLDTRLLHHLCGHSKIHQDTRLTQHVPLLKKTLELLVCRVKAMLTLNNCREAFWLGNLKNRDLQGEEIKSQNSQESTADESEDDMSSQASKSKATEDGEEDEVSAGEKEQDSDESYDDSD
# What was measured:
# [1] = biological target: T1, GST-APLF (1–200) (human) (UniProt Q8IW19); test: pull-down; GST-APLF fusion proteins on glutathione beads incubated with total HEK293T lysates (with or without cisplatin treatment) at 4°C for 3 h; wash 50 mM Tris pH 7.5, 150 mM NaCl, 1 mM EDTA, 0.1% Triton X-100; western blot; only the target purified
# T1 sequence: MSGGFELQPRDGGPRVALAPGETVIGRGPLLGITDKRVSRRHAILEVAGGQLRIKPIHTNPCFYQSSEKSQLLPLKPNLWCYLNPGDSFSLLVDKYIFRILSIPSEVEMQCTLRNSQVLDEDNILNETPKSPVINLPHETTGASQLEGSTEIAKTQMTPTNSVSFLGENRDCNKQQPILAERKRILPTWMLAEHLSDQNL
# [2] = biological target: T2, GST-tagged wild type APLF (human) (UniProt Q8IW19); test: as above
# T2 sequence: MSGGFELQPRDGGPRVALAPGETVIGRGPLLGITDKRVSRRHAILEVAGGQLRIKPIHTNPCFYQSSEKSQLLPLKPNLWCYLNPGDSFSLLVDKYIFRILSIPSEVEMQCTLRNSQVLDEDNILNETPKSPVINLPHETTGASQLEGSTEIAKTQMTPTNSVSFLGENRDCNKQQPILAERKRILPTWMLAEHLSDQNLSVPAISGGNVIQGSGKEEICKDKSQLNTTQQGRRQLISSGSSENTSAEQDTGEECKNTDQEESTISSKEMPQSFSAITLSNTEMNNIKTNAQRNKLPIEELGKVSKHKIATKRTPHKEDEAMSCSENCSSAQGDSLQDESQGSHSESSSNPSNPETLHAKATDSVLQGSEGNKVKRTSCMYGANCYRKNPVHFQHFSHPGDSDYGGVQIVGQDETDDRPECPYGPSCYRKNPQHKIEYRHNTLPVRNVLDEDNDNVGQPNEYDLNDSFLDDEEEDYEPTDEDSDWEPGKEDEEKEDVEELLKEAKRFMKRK
# [3] = biological target: T3, GST-APLF (1–110) (human) (UniProt Q8IW19); test: as above
# T3 sequence: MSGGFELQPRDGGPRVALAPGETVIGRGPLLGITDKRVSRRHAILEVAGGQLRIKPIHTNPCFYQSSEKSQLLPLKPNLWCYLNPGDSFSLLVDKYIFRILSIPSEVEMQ
# [4] = biological target: T4, GST-tagged APLF PBZ mutant (human) (UniProt Q8IW19); test: as above
# T4 sequence: T2 sequence with C379A, C385A, C421A, C427A
# [5] = biological target: T5, FLAG-tagged APLF PBZ mutant (C379A, C385A, C421A, C427A) (human) (UniProt Q8IW19); test: co-IP; HEK293T transfected with FLAG-APLF constructs, mock or 100 μM cisplatin for 2 h; Tween lysis buffer (100 mM KCl, 0.1% Tween-20), sonicated lysate; anti-FLAG and protein G-sepharose at 4°C; western blot
# T5 sequence: T2 sequence with C379A, C385A, C421A, C427A
# [6] = biological target: T6, FLAG-tagged APLF (WT) (human) (UniProt Q8IW19); test: as above
# T6 sequence: T2 sequence
# [7] = biological target: T7, APLF (endogenous) (human (endogenous; cell line not stated, all cell lines of the paper are human)) (UniProt Q8IW19); test: co-IP; endogenous proteins, anti-APLF antibody, with or without cisplatin treatment; western blot
# T7 sequence: T2 sequence
binding [1],binding [2],binding [3],binding [4],binding [5],binding [6],binding [7],Substance
binds,binds,binds,binds,binds,binds,binds,RAD51 (from UniProt Q06609 1-339)
binds,binds,no binding,binds,binds,binds,binds,FANCD2 (from UniProt Q9BXW9 1-1451)

# Source: publication PMC11162786
